Screen size: about 220,000 compounds; about 16,000 (7.3%) were called active. The inconclusive results got no clear call from the source; some entries with a clear call stand among them for comparison. Calls come from the whole dose curve; as a rule, active = well fitted inhibition curve with a large enough effect (not every such curve was filed as active); inconclusive = small, poorly fitted or top-dose-only effect, or another doubt; inactive = no such curve, though single readings can be large or run the other way. No potency is given beside an inconclusive call; the fits are too rough.
molecular target: Aldehyde dehydrogenase 1A1 (Homo sapiens) (UniProt P00352); assay: qHTS Assay for Inhibitors of Aldehyde Dehydrogenase 1 (ALDH1A1); conditions: Purified ALDH1A1, NADH fluorescence, propionaldehyde substrate; series mostly up to 75.3 µM; activity, negative = inhibition: at the top concentration;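 for activity, negative = inhibition: plate controls were no enzyme wells and a reference inhibitor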
Potency is the fitted concentration of half-maximal effect; tags give direction and shape of the fitted curve.

Chain of UniProt P00352 (P00352 whole entry, looked up): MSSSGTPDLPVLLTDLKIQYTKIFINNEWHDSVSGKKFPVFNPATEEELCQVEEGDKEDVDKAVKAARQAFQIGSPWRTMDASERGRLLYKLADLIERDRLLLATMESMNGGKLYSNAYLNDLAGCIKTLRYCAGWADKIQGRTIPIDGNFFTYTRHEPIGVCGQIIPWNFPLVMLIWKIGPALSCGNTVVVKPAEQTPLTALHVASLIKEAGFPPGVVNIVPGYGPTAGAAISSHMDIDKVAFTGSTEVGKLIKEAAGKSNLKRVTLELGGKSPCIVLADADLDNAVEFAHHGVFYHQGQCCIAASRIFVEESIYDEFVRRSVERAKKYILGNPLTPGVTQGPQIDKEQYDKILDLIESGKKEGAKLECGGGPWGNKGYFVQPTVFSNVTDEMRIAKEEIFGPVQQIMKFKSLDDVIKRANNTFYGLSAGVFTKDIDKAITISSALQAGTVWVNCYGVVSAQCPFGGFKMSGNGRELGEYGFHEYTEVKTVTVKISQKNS

Structure (SMILES)	activity, negative = inhibition	Potency
CCn1ncc(NC(=S)NCCc2ccc(OC)c(OC)c2)c1C(N)=O	inactive: -6.75%	
Cc1occc1-c1nnc(SCCCC(=O)c2ccc(F)cc2)n1C		inconclusive [inhibitor, single point]
O=C(COc1cccnc1[N+](=O)[O-])Nc1cccc(S(=O)(=O)N2CCOCC2)c1		inconclusive [inhibitor, single point]
CCCCN1C(=O)/C(=C(/C#N)C(N)=O)c2ccccc21		active: 7.08 µM
Cn1cc(/C=N/n2cnc3scc(-c4ccc(Cl)cc4)c3c2=O)c2ccccc21		inconclusive [inhibitor, partial curve]
Cc1cc(SCNC(=O)c2ccccc2)ncn1		inconclusive [inhibitor, single point]
CC(=O)Nc1ccc(-c2nn[nH]n2)cc1Cl	inactive: 8.27%	
N#CC1=C2SCC(O)(c3ccccc3)N2C(=O)CC1c1ccccc1F (stereo not given)		inconclusive [inhibitor, partial curve]
Cc1ccc(C(=O)N/N=C2/NC(=O)CC(C(=O)Nc3ccccc3)S2)cc1 (stereo not given)	inactive: -0.639%	
COC(=O)[C@@]1(Cc2ccccc2)[C@H]2c3cc(C(=O)N4CCCC4)n(Cc4ccc(OC)c(OC)c4)c3C[C@H]2CN1C(=O)c1ccccc1	inactive: -3.86%	
O=c1oc2ccccc2cc1-c1cn(-c2ccccc2)c(=S)[nH]1		inconclusive [inhibitor, partial curve]
CCN(CC)c1ccc(/C=N/NC(=O)C(O)c2ccccc2)cc1 (stereo not given)		inconclusive [inhibitor, partial curve]
Cc1cc2oc(=O)cc(CN3CCC(C)CC3)c2c(C)c1Cl		inconclusive [inhibitor, single point]
CCN(CC)S(=O)(=O)c1cccc(NC(=O)COC(=O)CCC(=O)c2ccc(F)cc2)c1	inactive: -3.14%	
COc1ccc(OC)c(NC(=S)NCCSc2ccc(C)cc2)c1		inconclusive [inhibitor, single point]
O=C(O)CCSc1nnc(-c2ccc3c(c2)OCO3)o1	inactive: -14.9%	
Cc1onc(-c2c(Cl)cccc2Cl)c1C(=O)c1c[nH]c(C(=O)NCCCN2CCOCC2)c1		inconclusive [inhibitor, single point]
CC(C)C(NC(=O)/C=C/c1cccc([N+](=O)[O-])c1)C(C)C	inactive: 1.1%	
O=C(CSc1nnc(-c2cc3ccccc3cc2O)n1Cc1ccco1)N1CCc2ccccc2C1		active: 35.5 µM
O=C(Cc1ccc(Cl)cc1)NNC(=O)Nc1cccc2ccccc12		inconclusive [inhibitor, single point]
